Measurements taken from ChEMBL document CHEMBL4888484, “Replenishing the malaria drug discovery pipeline: Screening and hit evaluation of the MMV Hit Generation Library 1 (HGL1) against asexual blood stage Plasmodium falciparum ,using a nano luciferase reporter read-out” (2022).
The whole screen tested about 150,000 compounds, of which about 540 (0.36%) showed an effect of 50% or more. This is one part of the list.

Test system: Plasmodium falciparum
Assay: Primary screen in NF54 nanoGlo assay, in single point, at 2uM, 72h; a lower Z score goes with more inhibition
Type: functional, Erythrocyte
Conditions: timepoint 72 hour

| Structure (SMILES) | % Inhibition | Z score |
| --- | --- | --- |
| O=C(Nc1cccc(Cl)c1)C1CCN(c2nccc3sccc23)CC1 | -20% | 1.94 |
| Fc1ccc2ncnc(Oc3ccc(-n4cncn4)cc3)c2c1 | -10% | 1.15 |
| Fc1ccc2oc(CN3CCN(c4ccccn4)CC3)nc2c1 | -8% | 1.58 |
| Cc1ccc(-n2nc(CO)c(C(=O)NCCCc3ccccc3)n2)cc1C | -13% | 2.37 |
| O=C(COC[C@H]1CCCO1)N1c2ccccc2Oc2ccccc21 | 18% | -3.18 |
| Cc1nccc(CCC(=O)N2CC3(CCOC3)C2)n1 | -4% | 0.58 |
| Cc1ccc(C(=O)NCC(C)(C)N2CCOCC2)o1 | -8% | 1.22 |
| Cc1ccc(CNC(=O)CCc2c(C)nn(-c3cc(N4CCCC4)ncn3)c2C)o1 | -10% | 2.04 |
| CCOc1ccccc1CN1CCC(Cn2c(C)cnc2-c2cccnc2)CC1 | -8% | 1.11 |
| FC(F)(F)c1ccc(Cl)c(-c2nn3c(Cc4ccccn4)nnc3s2)c1 | -4% | 0.49 |
| CC(C)(C)NC(=O)NC1CCCC(O)C1 (configuration not stated) | -3% | 0.52 |
| CC(=O)N1CCCN(C(=O)c2cnc3ccccn23)CC1 | 6% | -0.53 |
| Cc1ccc(C(=O)N2CC[C@H](OCC3CC3)C2)c(C)c1 | -9% | 1.4 |
| Cc1cccc(OC2CCN(C(=O)CN3C(=O)CCC3=O)CC2)n1 | -12% | 2.35 |
| CC(C)[C@@H]1N(C(=O)C2CCOCC2)CC12CCCCC2 | 0% | 0.02 |
| O=C(c1cnc(-c2cccnc2)s1)N1CCC[C@H]1c1ncon1 | -9% | 1.34 |
| Cc1ccoc1C(=O)NC[C@H]1CCN(Cc2nc(C(C)C)cs2)C1 | -10% | 1.62 |
| O=c1cc(CN2CCc3c(Cl)cc(Cl)cc3C2)[nH]c2ccnn12 | -12% | 2.21 |
| O=C(Nc1cccc(S(=O)(=O)NC2=NCCC2)c1)c1cc(Cl)c2c(c1)OCCCO2 | -11% | 1.51 |
| CC(C)(C)OC(=O)NCc1cn(-c2cccc(CN)c2)nn1 | -4% | 0.36 |
| CN(Cc1nccs1)C(=O)c1cn2c(n1)CCC2 | -16% | 1.93 |
| CCC(=O)N1CCN(C(=O)c2cncc(Br)c2)C1 | -16% | 2.95 |

| Structure (SMILES) | % Inhibition | Z score |
| --- | --- | --- |
| COc1ccc(-c2cc(C(=O)OCc3c(F)cccc3Cl)c3ccccc3n2)cc1 | -4% | 0.49 |
| COC[C@H](C)CS(=O)(=O)N(C)C1(C(=O)OC)CC(OC)C1 (some centres not stated) | -2% | 0.49 |
| COCc1ccsc1C(=O)N(C)C[C@H]1COc2ccccc2O1 | -13% | 1.93 |
| CCNC(=O)N1CCc2nc(N3CCN(C)CC3)nc(Oc3cccc(C)c3)c2C1 | 7% | -1.19 |
| CC1CC1C(=O)N1CCN(c2nn3cc(C(C)(C)C)nc3s2)CC1 (configuration not stated) | 16% | -2.17 |
| Cc1noc([C@H]2CCN(c3nc(C4CCC4)no3)C2)n1 | -12% | 2.39 |
| O=C(Nc1cccs1)N1Cc2cncnc2C1 | 1% | -0.09 |
| Cc1ccc2ccc3cc(C(=O)NCc4ccc(F)cc4)[nH]c3c2n1 | 2% | -0.38 |
| COc1cc2c(cc1OC)N(CN1CCN(c3ccccc3)CC1)C(=O)C2=O | 6% | -0.56 |
| N[C@H]1CCN(c2cccc3ccccc23)C1 | -1% | 0.1 |
| Clc1ccc2c(c1)N(CCn1cncn1)CCCC2 | -9% | 1.37 |
| Cc1ccc(C(=O)NCCc2noc(C(C)C)n2)c(O)c1 | -8% | 1.58 |
| CC(=O)N1CCC[C@@](O)(C(=O)N2CCc3cc(Cl)cc(Cl)c3C2)C1 | -2% | 0.44 |
| COc1ncccc1C(=O)N1CC[C@@H]2OCc3cccc(c3)Oc3ccc(cc3)CCC(=O)N(CCCO)CC(=O)N[C@H]2C1 | -5% | 0.89 |
| Cc1cc(C)cc(OCc2nc(CN(C(=O)c3ccco3)C(C)C)cs2)c1 | 2% | -0.23 |
| CCN(CC)C(=O)[C@@H]1CCCN1Cc1cn(C)nc1-c1cccs1 | -6% | 0.88 |
| O=C(C[C@@H]1NC(=O)N(CCc2c[nH]c3ccccc23)C1=O)NCc1ccccn1 | 4% | -0.65 |
| CC(C)(O)Cn1nc(CCCc2ccccc2)oc1=S | -3% | 0.43 |
| N#Cc1ccc(C(=O)NCc2cnc3cnccn23)cn1 | -2% | 0.39 |
| CCc1nccn1CCC(=O)N[C@@H](CC)c1cccc(C)n1 | -8% | 0.95 |
| O=C(O)C1CC1C(=O)NC1CCCCCCC1 (configuration not stated) | -2% | 0.23 |
| CCCCC(=O)NCc1ccc(C(N)=O)o1 | 9% | -1.27 |

| Structure (SMILES) | % Inhibition | Z score |
| --- | --- | --- |
| O=C(N[C@H]1CC(=O)N(CC2CCCCC2)C1)C(=O)c1ccccc1 | -2% | 0.28 |
| NC(=O)c1ccsc1NC(=O)Cc1cccs1 | -5% | 0.68 |
| Cc1cc(-c2nc([C@H]3CCOC3)nn2C(C)C)cc(=O)[nH]1 | -14% | 1.97 |
| O=C(N1CCC(Cc2ccccc2)CC1)N1CC(=O)N(C2CC2)C1 | 8% | -1.01 |
| COCCC1(CNC(=O)Nc2ccccc2N2CCCC2)CCC1 | -1% | 0.2 |
| Cc1cccc(N2C(=O)c3cc(Br)ccc3N[C@@H]2c2ccc(N(C)C)cc2)c1 | 37% | -5.31 |
| COCCN(Cc1ccc(OC)c(F)c1)Cc1ccc(C)s1 | -2% | 0.29 |
| Cc1ccoc1C(=O)Nc1ccc2c(c1)CCN2C(=O)c1ccoc1 | -16% | 2.09 |
| COC[C@H]1[C@@H](NS(=O)(=O)c2ccc(OC)c(OC)c2)[C@H]2CCO[C@H]21 | -7% | 1.48 |
| Cc1n[nH]c(C)c1-c1ccc2c(c1)OCCC2=O | 4% | -0.65 |
| O=C(NC1CCOCC1)c1coc(CN2CCN(Cc3ccccc3)CC2)n1 | -5% | 0.84 |
| CN1CCN(S(=O)(=O)N2CCCCCC2)C[C@@H]1CCO | -19% | 2.07 |
| CC(NC(=O)c1ccoc1)C(=O)N1CC2OCCN(Cc3ccccc3)C2C1 (configuration not stated) | -5% | 0.6 |
| CCNc1nc(C)c(C(=O)N2CC[C@@H]3OCc4cnnn4[C@H]3C2)s1 | -7% | 1.3 |
| O=C(Cc1csc2ccccc12)N1CCN(C(=O)Nc2ccccc2C(F)(F)F)CC1 | -5% | 0.94 |
| CN(CCN(C)C1CC1)C(=O)[C@H]1CCN(c2ccccc2)C1 | -8% | 0.89 |
| CNc1ccnc(N2CCC(C(=O)O)(n3ccc(C(C)C)n3)CC2)n1 | -1% | 0.2 |
| Cc1ccc(N2C[C@@H](C(=O)Nc3cnoc3)CC2=O)cc1 | -3% | 0.45 |
| CCc1nnc(NC(=O)c2nc[nH]n2)s1 | -4% | 0.74 |
| O=C(c1c[nH]c2ccccc12)N(CCN1CCOCC1)C1CCOCC1 | -9% | 1.52 |
| O=C1CC[C@H](CCC(=O)NC2(c3c(F)cccc3F)COC2)N1 | -10% | 1.06 |
| O=C(C1CCCC1)N1CCN(Cc2nc(-c3ccsc3)no2)CC1 | 3% | -0.52 |

| Structure (SMILES) | % Inhibition | Z score |
| --- | --- | --- |
| Cc1ccc(NC(=O)Cn2nc3c(Oc4ccccc4)nc4ccccc4n3c2=O)cc1C | 1% | -0.12 |
| C[C@@H](O)CNC(=O)c1cc(CN(C)CCc2ccccc2)on1 | -25% | 3.2 |
| N#Cc1cnn(-c2ccc(NC(=O)NC3CCCCC3)cc2)c1N | 10% | -1.22 |
| CCCc1cncnc1N1CCN(C)[C@]2(CCC(=O)N(CC3CC3)CC2)C1 | -1% | 0.2 |
| COc1c(F)ccc(CN(Cc2cccnc2)C[C@@H]2CCC(=O)N2)c1F | 4% | -0.72 |
| Cn1cc(CCS(=O)(=O)Cc2ccc(F)c(Cl)c2)nn1 | 4% | -0.73 |
| Cc1nc(CC(=O)N[C@H]2CCCc3occc32)cs1 | 6% | -0.76 |
| CCc1noc(C)c1C(=O)O[C@@H](C)c1cccnc1 | -2% | 0.17 |
| CCC(C)C(C)NC(=O)NCC(O)c1cccs1 (configuration not stated) | -7% | 1 |
| CC(=O)c1c(C)nn([C@@H](C)CC(=O)N(C)Cc2cc(C3CC3)on2)c1C | -20% | 2.15 |
| CCS(=O)(=O)NCCCN1CCN(C2CC2)c2cc(Cl)ccc21 | -4% | 0.36 |
| CCc1ccc(-c2nc(C)c(C(=O)N3CC[C@H](C(=O)O)C3)s2)cc1 | -11% | 1.57 |
| COCCCOC1CN(C(=O)c2cnn(C)c2)C1 | -4% | 0.56 |
| CC1CCN(c2nc(-c3ccc(Cl)cc3)cc(C(F)(F)F)n2)CC1 | -2% | 0.25 |
| CCC(C)(C)NC(=O)c1ccc(Oc2ncc(-c3ccc(C)cc3)cn2)cc1 | 0% | -0.02 |
| CCOc1cc(CNC(=O)C2CCN(c3nc4ccccc4n(CC)c3=O)CC2)ccc1OC | -10% | 1.71 |
| CCN(C(=O)c1cccc(F)c1F)[C@H]1CCN(c2ncccc2C#N)C[C@@H]1O | -5% | 0.95 |
| COc1ccc([C@@H](CC(=O)NCc2ccc(F)cc2)c2c[nH]c3ccccc23)c(OC)c1 | 3% | -0.42 |
| CC(C)c1cnc(-c2ccc(NC(=O)N3CCC(C)C3CO)cc2)o1 (configuration not stated) | -9% | 0.91 |
| Cc1noc(C)c1CN(C)S(=O)(=O)c1ccc(C#N)cc1 | -12% | 1 |
